Experimental findings from article PMC5951851 are described below.

These are yes or no findings as the source states them, for the method shown. Binding seen in cells or lysates may run through a third protein. Some entries that bind do so weakly or less than the wild type. Tags and fused reporters may be left off the sequences shown.

In assay [1] the target is RGS1 (luciferase complementation fusion) (Arabidopsis thaliana) (UniProt Q8H1F2). As to the kind of experiment: split reporter; luciferase complementation; Nluc and Cluc constructs co-expressed in N. benthamiana leaves by Agrobacterium; leaf disks after 2 days with 1 mM luciferin; with or without flg22, elf18 or chitin.
Assay [2] concerns the target T1, RGS1^S431A (luciferase complementation fusion) (Arabidopsis thaliana) (UniProt Q8H1F2).
T1 sequence: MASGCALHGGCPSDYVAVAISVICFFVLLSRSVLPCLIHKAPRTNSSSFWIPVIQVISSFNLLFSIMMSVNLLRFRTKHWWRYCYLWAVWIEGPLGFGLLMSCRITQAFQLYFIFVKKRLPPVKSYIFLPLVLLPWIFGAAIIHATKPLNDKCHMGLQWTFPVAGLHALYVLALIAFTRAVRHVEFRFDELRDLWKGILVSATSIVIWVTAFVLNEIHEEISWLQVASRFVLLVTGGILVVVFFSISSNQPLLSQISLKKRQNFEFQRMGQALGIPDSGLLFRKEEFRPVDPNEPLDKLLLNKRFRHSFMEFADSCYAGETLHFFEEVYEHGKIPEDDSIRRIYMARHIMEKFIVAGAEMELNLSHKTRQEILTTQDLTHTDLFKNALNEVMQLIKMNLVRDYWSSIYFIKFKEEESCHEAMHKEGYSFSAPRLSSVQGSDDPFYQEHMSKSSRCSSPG
Described as above.

In assay [3] the target is T2, RGS1CT^S431A-FLAG (Arabidopsis thaliana) (UniProt Q8H1F2).
T2 sequence: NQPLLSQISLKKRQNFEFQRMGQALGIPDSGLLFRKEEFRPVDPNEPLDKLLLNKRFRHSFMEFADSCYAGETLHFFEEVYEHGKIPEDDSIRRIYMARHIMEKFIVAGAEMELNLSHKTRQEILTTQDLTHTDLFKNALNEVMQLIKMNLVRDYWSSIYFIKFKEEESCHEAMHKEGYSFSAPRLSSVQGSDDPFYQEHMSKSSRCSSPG
As to the kind of experiment: co-IP; Arabidopsis protoplasts (Col-0 or rgs1-2) transfected, with or without 1 μM flg22 for 5 min, with or without co-expressed RGS1 variants; extraction buffer 50 mM HEPES pH 7.5, 150 mM KCl, 10 mM EDTA, 0.5% Triton X-100, 1 mM DTT; anti-FLAG M2 agarose, eluted with 3×FLAG peptide; anti-HA and anti-FLAG immunoblots. For orientation: A western blot detects proteins with antibodies after separation by electrophoresis.

The target in assay [4] is T3, RGS1CT-FLAG (Arabidopsis thaliana) (UniProt Q8H1F2).
T3 sequence: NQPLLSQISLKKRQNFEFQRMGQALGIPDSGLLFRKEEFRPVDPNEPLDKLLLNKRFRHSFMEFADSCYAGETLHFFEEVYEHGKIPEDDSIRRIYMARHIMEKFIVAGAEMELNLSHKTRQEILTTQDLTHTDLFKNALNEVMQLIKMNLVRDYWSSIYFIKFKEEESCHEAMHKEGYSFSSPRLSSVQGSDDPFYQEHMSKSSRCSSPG
Described as above.

Assay [5] deals with T4, RGS1 (luciferase complementation fusion) (Arabidopsis thaliana), Q8H1F2.
T4 chain: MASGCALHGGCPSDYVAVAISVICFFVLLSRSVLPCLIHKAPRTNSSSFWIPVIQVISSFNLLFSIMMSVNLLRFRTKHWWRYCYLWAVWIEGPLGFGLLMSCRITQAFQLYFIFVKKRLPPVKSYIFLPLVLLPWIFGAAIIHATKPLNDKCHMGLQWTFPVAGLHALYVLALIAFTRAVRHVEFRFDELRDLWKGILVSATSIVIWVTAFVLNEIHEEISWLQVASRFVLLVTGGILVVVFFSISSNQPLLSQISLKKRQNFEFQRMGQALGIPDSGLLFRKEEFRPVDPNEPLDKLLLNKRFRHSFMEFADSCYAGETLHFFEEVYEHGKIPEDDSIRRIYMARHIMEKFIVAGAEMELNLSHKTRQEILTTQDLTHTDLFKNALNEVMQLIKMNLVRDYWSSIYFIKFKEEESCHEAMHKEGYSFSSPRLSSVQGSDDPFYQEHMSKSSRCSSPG
As to the kind of experiment: split reporter; luciferase complementation; Nluc and Cluc constructs co-expressed in N. benthamiana leaves by Agrobacterium; leaf disks after 2 days with 1 mM luciferin; with or without flg22, elf18 or chitin. As to conditions: remark: other sources report otherwise.

B1: XLG2 (luciferase complementation fusion) (protein, UniProt C6KIE6 1-861)
chain: MAAVIRKLLPFPSPNPKRDNRESDDDDETSSGYRIEYSFASEYKGPLIANVPRALPVEVDQIPTALPVSFSSLRSGISYPVAPLVMTKDTKRPPDSGIEKKNGFVDSAAGSSVVLIGRDVVSGSSSSSSSKRLDVPEEVKSPADFRLSPSSPLSASAREEDHLDDDRVSDVGPRAVRFVEPFQSSECDESSYVSDGESIAATHRAERKGKRGSCYRCQLGNRFTEKEVCIVCDAKYCFNCVRRAMGAMPEGRKCQACIGYRIDESKRASLGKCSRMLKRHLTDSELRQVMNAEITCKANQLPSRLIIVNDKPLSEDELYTLQTCPNPPKKLKPGHYWYDKVAGYWGKIGEKPSQIISPNNSIGGYISEKVSNGDTEIYINGREITKPELTMLKWAGVQCEGKPHFWVDSDGSYREEGQKHPIGNIWSKKRAKIACAVFSLPVPPASSAVEPYDVPLYEQKMLNKLLLIGSEKGGATTIYKQARSLYNVSFSLEDRERIKFIIQTNLYTYLAMVLEAHERFEKEMSNDQSSGNVGDETSAKPGNSINPRLKHFSDWVLKEKEDGNLKIFPPSSRENAQTVADLWRVPAIQATYKRLRDTLPRNAVYFLERILEISRSEYDPSDMDILQAEGLSSMEGLSCVDFSFPSTSQEESLESDYQHDTDMKYQLIRLNPRSLGENWKLLEMFEDADLVIFCVSLTDYAENIEDGEGNIVNKMLATKQLFENMVTHPSLANKRFLLVLTKFDLLEEKIEEVPLRTCEWFEDFNPLISQNQTSRHNPPMAQRAFHYIGYKFKRLYDSILEPVNMRGRSFKPKLFVCQVSLESDTVDNALRYAREILKWHVEETSMFQEMSTTSIEASSSS
On to B1, for which the binding entry in assay [1] and in assay [2] was “binds” throughout.

B2: XLG2 (co-IP with RGS1CT) (protein, UniProt C6KIE6 1-861)
chain: MAAVIRKLLPFPSPNPKRDNRESDDDDETSSGYRIEYSFASEYKGPLIANVPRALPVEVDQIPTALPVSFSSLRSGISYPVAPLVMTKDTKRPPDSGIEKKNGFVDSAAGSSVVLIGRDVVSGSSSSSSSKRLDVPEEVKSPADFRLSPSSPLSASAREEDHLDDDRVSDVGPRAVRFVEPFQSSECDESSYVSDGESIAATHRAERKGKRGSCYRCQLGNRFTEKEVCIVCDAKYCFNCVRRAMGAMPEGRKCQACIGYRIDESKRASLGKCSRMLKRHLTDSELRQVMNAEITCKANQLPSRLIIVNDKPLSEDELYTLQTCPNPPKKLKPGHYWYDKVAGYWGKIGEKPSQIISPNNSIGGYISEKVSNGDTEIYINGREITKPELTMLKWAGVQCEGKPHFWVDSDGSYREEGQKHPIGNIWSKKRAKIACAVFSLPVPPASSAVEPYDVPLYEQKMLNKLLLIGSEKGGATTIYKQARSLYNVSFSLEDRERIKFIIQTNLYTYLAMVLEAHERFEKEMSNDQSSGNVGDETSAKPGNSINPRLKHFSDWVLKEKEDGNLKIFPPSSRENAQTVADLWRVPAIQATYKRLRDTLPRNAVYFLERILEISRSEYDPSDMDILQAEGLSSMEGLSCVDFSFPSTSQEESLESDYQHDTDMKYQLIRLNPRSLGENWKLLEMFEDADLVIFCVSLTDYAENIEDGEGNIVNKMLATKQLFENMVTHPSLANKRFLLVLTKFDLLEEKIEEVPLRTCEWFEDFNPLISQNQTSRHNPPMAQRAFHYIGYKFKRLYDSILEPVNMRGRSFKPKLFVCQVSLESDTVDNALRYAREILKWHVEETSMFQEMSTTSIEASSSS
With B2, the binding result in assay [3] and in assay [4] was “binds” each time.

B3: BAK1 (luciferase complementation fusion), Q94F62 26-615 (receptor)
chain: NAEGDALSALKNSLADPNKVLQSWDATLVTPCTWFHVTCNSDNSVTRVDLGNANLSGQLVMQLGQLPNLQYLELYSNNITGTIPEQLGNLTELVSLDLYLNNLSGPIPSTLGRLKKLRFLRLNNNSLSGEIPRSLTAVLTLQVLDLSNNPLTGDIPVNGSFSLFTPISFANTKLTPLPASPPPPISPTPPSPAGSNRITGAIAGGVAAGAALLFAVPAIALAWWRRKKPQDHFFDVPAEEDPEVHLGQLKRFSLRELQVASDNFSNKNILGRGGFGKVYKGRLADGTLVAVKRLKEERTQGGELQFQTEVEMISMAVHRNLLRLRGFCMTPTERLLVYPYMANGSVASCLRERPESQPPLDWPKRQRIALGSARGLAYLHDHCDPKIIHRDVKAANILLDEEFEAVVGDFGLAKLMDYKDTHVTTAVRGTIGHIAPEYLSTGKSSEKTDVFGYGVMLLELITGQRAFDLARLANDDDVMLLDWVKGLLKEKKLEALVDVDLQGNYKDEEVEQLIQVALLCTQSSPMERPKMSEVVRMLEGDGLAERWEEWQKEEMFRQDFNYPTHHPAVSGWIIGDSTSQIENEYPSGPR
Take B3: the binding entry in assay [5] is recorded as “no binding”.
